The data set relates to ATP. Description: switch fluorescence ratio, 500 uM ATP over buffer (Cy3 cluster intensity, sum of 5 cycles each) (fold (ratio)); higher = stronger signal-on switching upon ATP binding; sequences stand for … in TCGTCGGCAGCGTCAGATGTGTATAAGAGACAGTTTTTTTTTTTTTTTTTTTTTTTTT…TC. The note with it: aptamer strand: ATP DNA aptamer (quencher-CACCTGGGGGAGTATTGCGGAGGAAGG + anchor), 100 nM annealed; ATP concentration: 500 uM; one replicate. In a few lines:
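Clusters carrying Cy3-labelled switching strands on a modified Illumina MiSeq flow-cell were annealed to 100 nM quencher-labelled ATP aptamer and imaged in selection buffer. They were imaged again after 15 min with 500 uM ATP at 22 °C, over five buffer/ATP cycles with NaOH stripping and re-annealing in between. For each cluster, the fluorescence ratio is the summed Cy3 intensity of the target cycles divided by that of the buffer cycles, averaged per switch-domain sequence. Clusters outside 100-1000 RFU were left out.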

Values marked as one replicate rest on one cluster of the flow cell; about a third of the high ones do not repeat.
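Further: ATP exposure 15 min at 22 °C before imaging.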

With TATATACGTA, the switch fluorescence ratio amounted to 1.12.

As for CGATCTCCAG, the switch fluorescence ratio amounted to 1.04.

ATATTGGCTT: the switch fluorescence ratio is 1.02.

Turning to AAGGCTGTTA, the switch fluorescence ratio turned out to be 0.981.

On to ACCGGCACAG, for which the switch fluorescence ratio was 1.17.

As to CTGTGAAAGA, the switch fluorescence ratio came to 1.

On to GGGAGAAACT, for which the switch fluorescence ratio turned out to be 1.04.

On to CAGTGTGCTG, for which the switch fluorescence ratio is 1.09.

GAACTATCTC: the switch fluorescence ratio amounted to 1.03.

In the case of AAAGGTGAAT, the switch fluorescence ratio was determined as 1.04.

Regarding ATCCATTAAG, the switch fluorescence ratio came out at 1.04.

As for TGCTGTTATA, the switch fluorescence ratio came out at 1.02.

Consider GCAACGCCGG, for which the switch fluorescence ratio came to 1.08.

In the case of GTGTGGATCT, the switch fluorescence ratio was 0.983.

On to AACTCATGAT, for which the switch fluorescence ratio is 0.967.

For TAACACTTAG, the switch fluorescence ratio was determined as 1.07.

For the sequence ATGAGTATAT, the switch fluorescence ratio is 0.981.

For CCTGGGAACT, the switch fluorescence ratio was determined as 1.03.

Regarding CTCGTCGAAA, the switch fluorescence ratio amounted to 1.1.

As to ATCGGGGTAC, the switch fluorescence ratio was 1.03.

With GACTCGTTAT, the switch fluorescence ratio turned out to be 1.07.

Consider ATAAAGAAAC, for which the switch fluorescence ratio worked out at 1.01.

In the case of AAAGCTAATC, the switch fluorescence ratio was 1.15.

For the sequence CTGAGGGTCC, the switch fluorescence ratio was determined as 0.966.

CCAGAATCGG: the switch fluorescence ratio amounted to 0.964.

With CAGCTTATAA, the switch fluorescence ratio worked out at 1.12.

Take AGTTTGAGTG: the switch fluorescence ratio was 0.963.

As to CTCGGTTCTC, the switch fluorescence ratio worked out at 1.07.

For the sequence AGTTTATGGT, the switch fluorescence ratio amounted to 0.973.

Regarding TCTGGTCCTG, the switch fluorescence ratio came to 0.979.

As for GCCGCGCAAA, the switch fluorescence ratio was 1.01.

For CCCTGATCAT, the switch fluorescence ratio is 0.982.

As for TCAACGGCTA, the switch fluorescence ratio worked out at 1.05.

As for TACATTTACT, the switch fluorescence ratio came to 1.16.

GGGCAGTACC: the switch fluorescence ratio was 3.13.

Turning to CTATCTGTGG, the switch fluorescence ratio stood at 0.968.

Regarding GGCACTGACG, the switch fluorescence ratio was 1.22.

GTCAACCCGG: the switch fluorescence ratio was determined as 1.06.

With TCGTGGATTA, the switch fluorescence ratio was 1.

As to ATATTCAGCT, the switch fluorescence ratio came out at 0.933.

Consider CCGGGATACC, for which the switch fluorescence ratio worked out at 3.38.

Take GTGAGGGAGG: the switch fluorescence ratio worked out at 1.

With TGAACGGTAG, the switch fluorescence ratio was determined as 1.02.

Turning to GCACTAAGAC, the switch fluorescence ratio turned out to be 1.13.

Turning to GATATCTGGG, the switch fluorescence ratio was 0.995.

Consider ATGCGACCCG, for which the switch fluorescence ratio is 1.06.

As for GCCTGAACGG, the switch fluorescence ratio came out at 0.979.

Turning to TAGGCACTGT, the switch fluorescence ratio is 0.967.

In the case of AATAAAGGAC, the switch fluorescence ratio stood at 0.968.

In the case of AGAAGTTCGT, the switch fluorescence ratio worked out at 1.01.

As to CCACACTATT, the switch fluorescence ratio came to 1.11.

For ATCGCGAAGC, the switch fluorescence ratio came out at 0.968.

Turning to CAAAATGTAG, the switch fluorescence ratio is 1.02.

On to TCGCCTCCAG, for which the switch fluorescence ratio is 1.28.

ATAATGGGCT: the switch fluorescence ratio was found to be 1.

As for CGGGTCAAGT, the switch fluorescence ratio came to 0.971.

GAGACCTCGC: the switch fluorescence ratio came out at 1.03.

For the sequence TAGAAAGGT, the switch fluorescence ratio is 1.06.

Take GGAACAGCTG: the switch fluorescence ratio was found to be 1.01.

For GTCCAGAAAA, the switch fluorescence ratio stood at 1.04.

In the case of CTGGTGTATC, the switch fluorescence ratio is 0.977.

TCTATATCAT: the switch fluorescence ratio was 0.98.

Consider TCAGGCGGGG, for which the switch fluorescence ratio worked out at 0.999.

Regarding TCCCCAGTCC, the switch fluorescence ratio is 1.2.

CTAGTCGGCG: the switch fluorescence ratio amounted to 0.953.

For CGCATTAACG, the switch fluorescence ratio was determined as 1.4.

For the sequence TAGGTAGCTC, the switch fluorescence ratio worked out at 1.02.

For the sequence TATTTCTGGG, the switch fluorescence ratio stood at 0.956.

Turning to CGCATAGGCG, the switch fluorescence ratio worked out at 1.01.

In the case of TGCTTATAG, the switch fluorescence ratio worked out at 0.994.

For TCAATACAGC, the switch fluorescence ratio stood at 1.04.

GTAAACTACT: the switch fluorescence ratio stood at 1.02.

In the case of GTGTACTGTT, the switch fluorescence ratio is 0.936.

On to GTATTACAGA, for which the switch fluorescence ratio worked out at 0.996.

Consider CTAATTGGGT, for which the switch fluorescence ratio was found to be 1.02.

With GGTCAGTAGG, the switch fluorescence ratio was found to be 0.995.

In the case of AAAGCGGGTT, the switch fluorescence ratio came out at 1.07.

Regarding TAGATTTAAA, the switch fluorescence ratio is 0.968.

These data come from the supplement of paper PMC10126150.
